# According to publication PMC4336329 (PLoS ONE, 2015):
# The whole screen tested about 310,000 compounds, of which about 2,200 (0.71%) showed an effect of 50% or more. The effect is printed as a negative number. Some of the results follow.
# Biological target: human ether-à-go-go-related gene (hERG) potassium channel (human, UniProt Q12809)
# Test: primary screen, population patch clamp on CHO cells stably expressing hERG
# Chain of human ether-à-go-go-related gene (hERG) potassium channel (Q12809 whole entry, looked up): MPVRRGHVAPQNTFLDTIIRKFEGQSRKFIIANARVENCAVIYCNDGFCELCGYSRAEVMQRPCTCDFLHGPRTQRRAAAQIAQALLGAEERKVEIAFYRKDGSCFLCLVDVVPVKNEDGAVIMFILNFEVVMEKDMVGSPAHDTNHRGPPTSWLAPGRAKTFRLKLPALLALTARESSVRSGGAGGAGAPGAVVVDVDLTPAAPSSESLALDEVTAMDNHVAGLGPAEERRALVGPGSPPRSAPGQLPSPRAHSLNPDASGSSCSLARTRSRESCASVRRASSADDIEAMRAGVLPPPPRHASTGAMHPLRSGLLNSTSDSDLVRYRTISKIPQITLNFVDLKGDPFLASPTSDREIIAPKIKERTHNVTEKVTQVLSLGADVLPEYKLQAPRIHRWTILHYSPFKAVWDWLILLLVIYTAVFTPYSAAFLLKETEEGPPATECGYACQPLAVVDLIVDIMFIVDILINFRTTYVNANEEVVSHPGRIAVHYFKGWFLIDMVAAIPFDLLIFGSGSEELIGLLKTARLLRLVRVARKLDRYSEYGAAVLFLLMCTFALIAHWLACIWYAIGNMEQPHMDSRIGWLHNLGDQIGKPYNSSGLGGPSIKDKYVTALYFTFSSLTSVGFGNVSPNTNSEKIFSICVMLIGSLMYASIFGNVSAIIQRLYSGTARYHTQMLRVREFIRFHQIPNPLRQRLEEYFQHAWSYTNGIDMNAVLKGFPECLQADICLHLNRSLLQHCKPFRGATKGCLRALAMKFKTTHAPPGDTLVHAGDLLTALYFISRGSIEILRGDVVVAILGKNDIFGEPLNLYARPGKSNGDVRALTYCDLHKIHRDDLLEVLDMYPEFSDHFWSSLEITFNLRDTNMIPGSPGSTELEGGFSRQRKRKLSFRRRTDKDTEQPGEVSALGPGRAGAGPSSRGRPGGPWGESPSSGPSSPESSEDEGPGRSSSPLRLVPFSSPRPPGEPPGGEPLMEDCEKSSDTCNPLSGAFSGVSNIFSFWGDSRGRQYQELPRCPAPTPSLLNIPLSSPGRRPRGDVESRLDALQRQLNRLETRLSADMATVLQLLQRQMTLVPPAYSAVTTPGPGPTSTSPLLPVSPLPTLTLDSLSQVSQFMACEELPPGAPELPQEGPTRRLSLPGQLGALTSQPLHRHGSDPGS
row,Structure (SMILES),"hERG current change (%, negative = inhibition) at 1uM [%]"
1,C/C(N)=C(/C#N)C(=O)COC(=O)CNS(=O)(=O)c1ccc(F)c(F)c1F,12.6
2,CCC(C)(C(=O)NC1CCCCC1)N(Cc1ccco1)C(=O)CC1NC(=O)NC1=O (stereo not drawn),8.75
3,Oc1ccc(Cl)cc1/C=N/c1nc2ccccc2[nH]1,12.3
4,Cc1ccc(S(=O)(=O)N2CCCCC2)cc1C(=O)NCCN1CCOCC1,9.5
5,Cc1nc(CC(C)C)cc(C(=O)N2CCCC(CNS(=O)(=O)c3cccs3)C2)n1 (stereo not drawn),5.44
6,Cc1c(C)c2ccc(O[C@@H]3O[C@H](CO)[C@@H](O)[C@H](O)[C@H]3O)c(C)c2oc1=O,10.6
7,c1ccc(Nc2nnc(-c3cccc4ccccc34)o2)cc1,9.72
8,CCOC(=O)CSc1nc2cc(C(=O)NCc3ccco3)ccc2c(=O)n1C1CCCCC1,9.64
9,Cc1ccccc1-c1cc(C(=O)O)nn1CC1CC(c2cccc([N+](=O)[O-])c2)=NO1 (stereo not drawn),10.4
10,CC(NC(=O)COC(=O)COc1cccc2c1OC(C)(C)C2)c1ccccc1 (stereo not drawn),9.46
11,COc1cccc(NS(=O)(=O)c2ccc3c(c2)N(C(C)=O)CCO3)c1,18.4
12,COc1cccc(OCc2cc(C(=O)N3CCN(C4CCCCC4)C(=O)C3)no2)c1,11.1
13,O=C(CN1CCCCCCC1)Nc1cc(Cl)cc(Cl)c1,3.21
14,CCN1CCCC1CNC(=O)CCNC(=O)c1cc(OC)c(OC)c(OC)c1 (stereo not drawn),6.62
15,CC(=O)Nc1ccc(NC(=O)CSc2nnc(CC(C)O)n2-c2ccccc2)cc1 (stereo not drawn),12.2
16,C=CCn1c(O)c(C(CC)=NCC2CCCO2)c(=O)[nH]c1=O (stereo not drawn),10.2
17,CC(=O)NCC1CCCN(C(=O)c2ccc(OC3CCN(Cc4ccccn4)CC3)cc2)C1 (stereo not drawn),10.9
18,c1ccc(Nc2nc3ccccc3[nH]2)nc1,5.9
19,CN(C1CCCCC1)S(=O)(=O)c1ccc(S(=O)(=O)N2CCCC2)cc1,3.2

row,Structure (SMILES),"hERG current change (%, negative = inhibition) at 1uM [%]"
1,C=CCn1c(=O)c(C=Nc2cccnc2Cl)c(O)n(CCCC)c1=O,2.63
2,Cc1cc(C)c(C(N)=O)c(Nc2ccc(F)cc2)n1,16.3
3,Cc1ccc(NC(=O)CS(=O)CC(=O)NC(C)CCc2ccco2)cc1Cl (stereo not drawn),-4.83
4,Cc1cc(C)c(NC(=O)CN(C)C(C)C(=O)N2CCc3ccccc32)c(C)c1 (stereo not drawn),-2.31
5,Cc1ccccc1S(=O)(=O)Nc1ncnc2ccccc12,11.9
6,CC(C)C(=O)Nc1cccc(-c2nc3ccccc3c(=O)o2)c1,-2.78
7,NC(=O)CSc1nnc(-c2ccc(S(=O)(=O)N3CCOCC3)cc2)n1CC1CCCO1 (stereo not drawn),2.57
8,c1ccc2nc(-c3ccc4c(c3)OCO4)ccc2c1,13.7
9,COc1ccc(C2=NO[C@@](CC(=O)O)(C(=O)Nc3ccc4c(c3)OCCO4)C2)cc1,11.2
10,OCCN1CCN(c2nc(-c3ccccc3)c3cc(Br)ccc3n2)CC1,3.88
11,CCCc1nc2ccc(NC(=O)c3cccs3)cc2c(=O)n1Cc1ccccc1Cl,-1.29
12,Cc1ccc(S(=O)(=O)N2CCC(=O)N(C(CO)C(C)C)CC2)cc1 (stereo not drawn),6.9
13,Cc1ccc(CN2C(=O)N/C(=C/c3cc(C)n(-c4ccccn4)c3C)C2=O)cc1,10.7
14,Cc1ccc(/C=C/C(=O)O)cc1S(=O)(=O)NCCO,7.82
15,COc1ccc(CC(=O)NC2=NCCS2)cc1,0.418
16,NC(=O)CC(NC(=O)Cc1ccc(Cl)cc1)c1ccc(NCC2CC2)c([N+](=O)[O-])c1 (stereo not drawn),-4.57
17,Cc1csc(SCC(=O)Nc2ccccn2)n1,-7.68
18,CC(=O)c1ccccc1OC(=O)c1c(F)cccc1F,10.9
19,CCOC(=O)CNC(=O)Cc1ccc(OC)cc1,21.3

row,Structure (SMILES),"hERG current change (%, negative = inhibition) at 1uM [%]"
1,NNC(=O)Cc1csc(-c2ccccc2)n1,8.66
2,COC(=O)CCCCC1SCC(NC(=O)c2ccccc2)C1OC(C)=O (stereo not drawn),6.09
3,CCc1cccc(CC)c1NC(=O)C(CC)Sc1nc2ccncc2[nH]1 (stereo not drawn),8.77
4,CC(C)(C)C(=O)/C=C1\NC(=O)CS1,12
5,COc1ccc(NC(=O)CN(C)S(=O)(=O)c2ccccc2)cc1OC,2.68
6,CC1=NN2C(=N)/C(=C\c3cc(C)n(Cc4ccccc4)c3C)C(=O)N=C2S1,12.2
7,Nc1nnc(CC(=O)N/N=C/c2ccc([N+](=O)[O-])cc2)s1,10.4
8,CC12CCC(C(=O)Nc3c(Cl)cccc3Cl)(C(Br)C1=O)C2(C)C (stereo not drawn),2.92
9,COc1ccc(C(C)=O)cc1CSc1nc2cc(C(=O)O)ccc2c(=O)n1Cc1ccccc1,10.9
10,Cc1cc(C)nc(N2N=C(C(F)(F)F)CC2=O)n1,10
11,Cc1cc(-c2ccccc2)c2c3c(c(-c4ccccc4)n2n1)c(=O)n(C)c(=O)n3C,6.03
12,CCc1ccc2[nH]c(=O)c(-c3ccccc3)c(O)c2c1,18
13,CCC1=C/C(=C\c2ccc3c(c2)OCO3)C(=O)S1,12.5
14,Cn1cc(/C=N/NC(=O)c2cccc([N+](=O)[O-])c2)c2ccccc21,22.9
15,CC(C)CCN(C(=O)c1csnn1)C(C(=O)NC1CCCC1)c1ccc(F)cc1 (stereo not drawn),5.88
16,Cc1ccc(NC(=O)CNC(=O)c2cccc(Cl)c2)nc1,8.09
17,Cc1c(C(=O)O)oc2c3c(ccc12)OCCO3,9.29
18,COC(=O)COc1c(Cl)cc(C(c2c(C)[nH][nH]c2=O)c2c(C)[nH][nH]c2=O)cc1OC,11.4
19,CC(C)CC(=O)Nc1ccc(-c2nc3ccccc3c(=O)[nH]2)cc1,11.8
